Data from PubChem BioAssay AID900 (National Center for Advancing Translational Sciences (NCATS), 2007).
Hit rate of the full screen: of about 75,000 compounds, about 20 (0.03%) were called active. About 1% were inconclusive and are not listed. Calls follow the shape of the dose curve; as a rule, active = well fitted inhibition curve with a large enough effect; inconclusive = small, poorly fitted or top-dose-only effect; inactive = flat fitted curve, though single readings scatter. The list shows a part of the results, in another mix than the full data.

These molecules were tested against Caspase-1 (Homo sapiens) (UniProt P29466) (assay: qHTS Assay for Allosteric/Competitive Inhibitors of Caspase-1). Conditions: Caspase-1 enzyme, Ac-WEHD-AFC fluorogenic rate; series mostly up to 57.5 µM; activity change, negative = inhibition: at the top concentration.
Excerpt: NIH Molecular Libraries Screening Centers Network [MLSCN]
NIH Chemical Genomics Center [NCGC]
PI Name: Dr. James Wells,
Dr. Enrique Perez-Paya, Dr.Janice Williams, Dr. Dennis Wolan, a person
The caspases (Cysteine Aspartyl Protease) comprise a related family of 14 dimeric proteases that are critical mediators of apoptosis (programmed cell death) and inflammation. The caspases represent an important class of drug targets for stroke, ischemia, cancer and inflammatory diseases. […] One goal of this project was to identify compounds that act as allosteric inhibitors via stabilizing the procaspase form of the enzyme. Previous work in Well's laboratory has shown that such allosteric inhibitors can be identified and these act by binding at the dimer interface of enzyme (Hardy, Lam et al., 2004).
The biochemical assay was configured using purified caspase 1 at a high enzyme concentration to promote formation of the homodimers and thus facilitate the identification of allosteric inhibitors. The overall goal was to identify reversible inhibitors with better drug-like properties than the currently available set of aspartyl-containing peptidomimetics that covalently bind the active site. Caspase 1 was assayed using the profluorescent substrate Ac-WEHD-AFC. After initiation of the assay with substrate the plates were rapidly read using an automated robotic system (Kalypsys, Inc.) to maintain consistent timing. A kinetic mode of detection was used where the initial rate was collected (estimated final product formation was ~10%). Compounds were screened as a concentration-titration series that ranged from 57 uM to 0.7 nM. Below is the protocol used for caspase 1.
NCGC Assay Protocol Summary:
Caspase 1 was prepared in buffer (50 mM HEPES pH 7.5, 50 mM KCl, 200 mM NaCl, 10 mM DTT, 0.1% CHAPS) at a concentration of 66.6 nM and 3 uL was dispensed to all wells using black solid Kalypsys 1536-well plates. 20 nL of DMSO containing compounds was added using a pin-tool (Kalypsys Inc.) to columns 5-48. Then 20 nL of DMSO solution from a control plate was added to columns 1-4. Controls were: Column 1, 16 point titration with each concentration in duplicate (1:1 dilutions in DMSO; final starting concentration was 57 uM) of the caspase 1 inhibitor Ac-WEHD-CHO (Alexis Biochemicals); Column 2, a 16 point titration with each concentration in duplicate of the free AFC fluorophore prepared in DMSO (Alexis Biochemicals), final starting was 40 uM; Column 3 neutral (DMSO only) control; Column 4: DMSO alone, to serve as a negative control (no substrate was added). Then 1 uL of 20 uM the substrate Ac-WEHD-AFC (Alexis Biochemicals) prepared in the same buffer was dispensed to all wells except columns 2 and 4 and the plates were immediately transferred (< 1 min) to the Viewlux. The plates were then exposed using 405 nm excitation/520 nm emission filters for 4 sec and read at 20 sec intervals for 3 min. Final enzyme concentration was 50 nM and the final substrate concentration was 5 uM.
Concentration-response curves were fitted to the data calculated from slope of the linear regression of fluorescent intensity versus time (the rate). The concentration-effect curves were then classified based on curve quality (r2), response magnitude and degree of measured activity. […] Inconclusive compounds had appreciable concentration-dependent effects on both the measured rate and the interpolated basal fluorescence intensity at the start of the reaction but where the basal fluorescent intensity was marginal (e.g. < 10-fold). Inconclusive compounds also encompass highly fluorescent compounds (>100-fold increases in fluorescent intensities values relative to controls) where artificial concentration-dependent decreases in the rate occurred at high compound concentrations due to fluorescent interferences.
Keywords: Caspase 1, proteases, profluorescent, MLSMR, MLSCN, NIH Roadmap, qHTS, NCGC
Potency is read from the fitted curve at half-maximal effect.

Row | SMILES | Potency | activity change, negative = inhibition
1 | CN(C)CC/C=C1\c2ccccc2Sc2ccc(Cl)cc21 | inactive | 
2 | COc1cc(CNC(=O)CCCC/C=C\C(C)C)ccc1O | inactive | 
3 | CCCN(CCC)[C@@H]1CCc2ccc(O)cc2C1 | inactive | 
4 | CC(CO)NC(=O)C1C=C2c3cccc4[nH]cc(c34)C[C@H]2N(C)C1 (stereo partly specified) |  | inactive: 0.235%
5 | COc1cc2c(c(OC)c1OC)-c1ccc(OC)c(=O)cc1C(NC(C)=O)CC2 (stereo unspecified) |  | inactive: -9.62%
6 | COc1cc2c(c(OC)c1OC)-c1ccc(OC)c(=O)cc1[C@H](NC(C)=O)CC2 | inactive | 
7 | COc1cc(CNC(=O)CCCC/C=C/C(C)C)ccc1O |  | inactive: -7.33%
8 | CCn1nc(-c2cccs2)nc2c(=O)n(C)c(=O)nc1-2 | active: 794 nM | 
9 | CCCCC/C=C\C/C=C\C/C=C\C/C=C\CCCC(=O)O |  | inactive: -2.13%
10 | CC[C@@H]1CN2CCc3cc(OC)c(OC)cc3[C@H]2C[C@@H]1C[C@H]1NCCc2cc(OC)c(OC)cc21 |  | inactive: -11.3% [at 25.7 µM]
11 | CC[C@@H]1CN2CCc3cc(OC)c(OC)cc3[C@H]2C[C@@H]1C[C@@H]1NCCc2cc(OC)c(OC)cc21 |  | inactive: -3.07%
